# Experimental data taken from the supplement of paper PMC5499739.
# In all, about 16,000 sequences were measured (“Z-score”: median about -0.37, highest 2% from about 3.1 on). The list shows a part of the results.
# System: RBM10 RRM1-ZnF-RRM2 (GST-tagged construct)
# Assay: RNAcompete 7-mer binding Z-score; higher = stronger binding preference
# Outline: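 Each heptamer motif was given a one-sided Z-score for enrichment across the probes that contained it. GST-tagged RBM10 constructs (20 pmol) were combined with 1.5 nmol of a designed pool of 241 399 RNAs of up to 41 nt, transcribed from microarray-derived DNA templates. Binding took place in 1 ml Hepes pH 7.8 buffer containing KCl, NaCl, glycerol, DTT, BSA and glutathione Sepharose beads for 30 min at 4°C. After four 2-min washes at 4°C, bound RNA was identified by microarray hybridisation.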
row,Sequence,RNAcompete 7-mer binding Z-score
1,GCCAAGA,-0.329
2,CCGCCUU,-0.941
3,GCAGUAU,0.0859
4,CAAGUGU,-0.103
5,UGUAUGU,-0.187
6,AUUUAGU,-0.304
7,AGGUUUA,0.432
8,GUGUUCG,-0.122
9,UACGCAA,-0.442
10,UUCGCCG,-0.643
11,CGUCGAU,-0.253
12,AGCAAUA,-0.0343
13,AGACGAU,-0.14
14,GGGCCCG,0.195
15,CGGCGGC,0.264
16,AAGACGU,0.00944
17,AUUCAGG,0.589
18,CAAUGUG,0.865
19,GCAUCAU,-0.428
20,UCGAGCC,-0.694
21,AGAGAGU,0.785
22,UGCAACG,-0.14
23,CCCUACA,-0.908

row,Sequence,RNAcompete 7-mer binding Z-score
1,UAUAGAC,-0.209
2,UCGGUCC,-0.533
3,GAUAUCU,-0.562
4,UCGAAGG,0.927
5,UUGUGCU,-0.588
6,GAAGGUU,2.96
7,CACUGCA,-0.57
8,CAACACC,-0.398
9,UGACGAA,0.217
10,CACGUCC,-0.785
11,UCGAGCU,-0.413
12,GUUUCUG,-0.329
13,GAGAGAA,0.833
14,AAUCACU,-0.428
15,UGGGUCA,1.71
16,AAUGGCU,0.37
17,GGCUAGC,0.396
18,GUGUCUA,-0.457
19,AUGUCCU,-0.77
20,GUGCCGA,0.0422
21,UCGAUAU,-0.475
22,GAGCAGA,0.894
23,AUGUUGA,-0.125

row,Sequence,RNAcompete 7-mer binding Z-score
1,AAGAACA,0.21
2,UACGGCG,0.148
3,UCCAACC,-0.857
4,GAAGGCG,2.66
5,GAGAUCU,-0.398
6,CGCACAG,-0.34
7,CCGUCGG,-0.147
8,GCGUCAA,-0.0707
9,AUCUUCG,-0.839
10,UUGCGGA,0.253
11,UUCUGAA,-0.632
12,GUAUUUU,-0.668
13,GAGAUUG,0.643
14,UGCUCUA,-0.887
15,CGGCUUG,-0.366
16,UAAGUUA,-0.0816
17,GAACUCU,-0.792
18,GUCUUUG,-0.599
19,UUCUCAA,-0.704
20,UCGGGUC,0.512
21,CUAUAGU,-0.515
22,AGGUAGU,1.19
23,CUUUACC,-0.828

row,Sequence,RNAcompete 7-mer binding Z-score
1,CGAAACC,-0.482
2,UCUACAA,-0.675
3,ACUAACG,-0.409
4,AAAUUUG,-0.307
5,UUCCCGC,-0.846
6,AAGUGAC,0.902
7,AAAGGUA,3.53
8,CCUAGAG,-0.497
9,GGAGUCA,1.05
10,AUUAGGU,1.13
11,GGCCCGC,-0.675
12,AGUCGAC,0.00944
13,AUAUCCG,-0.697
14,AAAGUCU,-0.628
15,UGUCUGU,-0.628
16,AUACGUC,-0.42
17,CCGAAGA,-0.581
18,AGAAGCA,0.0349
19,UGAGUCC,-0.398
20,UAGGUGG,2.82
21,CUCACUA,-0.803
22,GAGGAGG,2.99
23,GUAGUGU,0.909

row,Sequence,RNAcompete 7-mer binding Z-score
1,CUUGCGC,-0.774
2,UGUCUUG,-0.675
3,UCACUAU,-0.65
4,CUACUCC,-0.854
5,CUUCCAA,-0.825
6,UUGCGCG,-0.26
7,GGAUGUU,0.567
8,UGGCCAC,-0.409
9,ACUAUCA,-0.723
10,AGUUUGC,-0.38
11,GGAUGUA,1.78
12,AAAUAAU,-0.362
13,UUGUUCU,-0.803
14,GCUCGCU,-0.588
15,GUGAUCU,-0.424
16,CACGCAC,-0.602
17,UCCUCUC,-0.661
18,UAACGAU,-0.388
19,UAUGGUG,1.46
20,UAGUUUC,-0.53
21,GACGCAC,-0.639
22,CCAAUCG,-0.326
23,GUUGUAC,-0.278

row,Sequence,RNAcompete 7-mer binding Z-score
1,GAACGAU,0.13
2,UAACCUG,-0.723
3,GCGUGAU,0.414
4,AUAGGAG,2.27
5,GUGAAGU,0.971
6,AUUUAGA,-0.125
7,CACAUAC,-0.541
8,ACACUGA,-0.486
9,UUAAAUA,-0.373
10,UUUCGGA,-0.107
11,AAUUCAG,-0.187
12,AACCAAU,-0.406
13,GUCUGAU,-0.624
14,CCUAACG,-0.712
15,GCAGGUU,1.19
16,CCUGCGG,-0.0343
17,GCUUAUA,-0.715
18,AGGACAG,1.49
19,CGUAGUA,-0.00877
20,CGGAGAC,0.454
21,UAUUCGC,-0.686
22,UUCUGAC,-0.821
23,CUGAACU,-0.795

row,Sequence,RNAcompete 7-mer binding Z-score
1,UAGGGUU,3.14
2,CGUGGGG,3.57
3,AGGCACA,0.0932
4,ACGGCCG,-0.3
5,AGAAAUA,-0.162
6,CCGACCA,-0.93
7,GACCGUU,-0.923
8,GUACAUU,-0.184
9,AAGUGUA,0.935
10,UGACGAU,0.0714
11,UUCAAAA,-0.65
12,AUGCACG,0.111
13,CACCCCG,-0.344
14,CCAAGAA,-0.26
15,AUUGCCU,-0.868
16,GAUGAGG,3.6
17,GAUAAAA,-0.0197
18,UCGCGGU,-0.0816
19,UAAUUUC,-0.781
20,UUUAUGA,-0.737
21,AUAUGUC,-0.431
22,GACGAAC,-0.0962
23,CACAUCA,-0.541

row,Sequence,RNAcompete 7-mer binding Z-score
1,GUUAUGU,-0.0743
2,ACGCUUA,-0.89
3,AUUCAAC,-0.581
4,GUUCUGG,-0.158
5,UCUAUAC,-0.744
6,CACCGGU,-0.0998
7,CGGGGCU,1.43
8,CUGCUUC,-0.825
9,AGCCUAG,-0.599
10,CGCUCAG,-0.555
11,GUCCUGC,-0.606
12,AGCAACU,-0.34
13,CAGUCGU,-0.307
14,CUGGGAU,0.964
15,GAGGAGC,1.79
16,GGCAAAG,1.95
17,GCAGACA,-0.114
18,UCAACAU,-0.453
19,AGGCUAU,-0.322
20,AUUGGAG,2.24
21,UUGUACG,-0.519
22,GUUCUCC,-0.628
23,AACUUGU,-0.781
